Assay [1] has as its target GST-tagged Gαi3 (purified rat Gαi3) (rat) (UniProt P08753). Kind of assay: pull-down; purified GST-Gαi3 preloaded with GDP, immobilised on glutathione-Sepharose beads; lysates of transfected HEK293T cells; binding 4 h at 4 °C; immunoblot; only the target purified.
For assay [2] the target is unchanged. Put plainly: pull-down; purified GST-Gαi3 (no nucleotide loading told) immobilised on glutathione-Sepharose beads; lysates of HEK293T cells expressing myc-tagged WT or F1685A GIV or GIV-L; immunoblot with anti-myc; only the target purified. For orientation: A western blot detects proteins with antibodies after separation by electrophoresis.
For another assay, the target named is Gαi1(91)-RLuc2 (human) (UniProt P63096). Put plainly: FRET or BRET; basal BRET between Gαi1(91)-RLuc2 and mVenus-Gβγ in HEK293T cells co-transfected with CXCR4 and GIV variants (with or without Dvl); coelenterazine-h 10 μM, room temperature, average over 3 min. A general note: In BRET a luciferase serves as donor, and the signal depends on an acceptor being close.

Protein sequences, listed by entry. Tags and fused reporters are not part of them. Lines headed by an entry give the natural chain unless they say otherwise; changes in a name come on top. Chains listed by the source or under a name are the forms on record and can include a tag or linker.
UniProt P08753: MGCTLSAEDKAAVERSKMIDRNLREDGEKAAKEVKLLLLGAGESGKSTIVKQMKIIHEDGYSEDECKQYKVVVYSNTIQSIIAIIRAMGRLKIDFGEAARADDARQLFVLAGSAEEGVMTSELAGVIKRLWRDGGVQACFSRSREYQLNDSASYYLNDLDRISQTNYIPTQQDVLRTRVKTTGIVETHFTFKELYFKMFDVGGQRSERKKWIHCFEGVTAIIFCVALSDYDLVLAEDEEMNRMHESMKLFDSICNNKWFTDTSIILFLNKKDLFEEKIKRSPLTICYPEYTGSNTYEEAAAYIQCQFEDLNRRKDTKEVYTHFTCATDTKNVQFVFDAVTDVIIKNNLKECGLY
UniProt P63096: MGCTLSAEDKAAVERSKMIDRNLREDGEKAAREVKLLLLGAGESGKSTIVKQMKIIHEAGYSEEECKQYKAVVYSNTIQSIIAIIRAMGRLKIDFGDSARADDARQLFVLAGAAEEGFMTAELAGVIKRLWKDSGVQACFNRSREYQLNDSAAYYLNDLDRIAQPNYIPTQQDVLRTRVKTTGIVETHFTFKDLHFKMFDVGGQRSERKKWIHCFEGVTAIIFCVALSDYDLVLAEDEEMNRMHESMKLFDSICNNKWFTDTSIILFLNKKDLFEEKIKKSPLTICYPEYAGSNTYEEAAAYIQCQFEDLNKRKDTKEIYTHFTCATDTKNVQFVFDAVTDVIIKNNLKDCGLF
myc-tagged human GIV (wild type) (Q3V6T2-3, form named): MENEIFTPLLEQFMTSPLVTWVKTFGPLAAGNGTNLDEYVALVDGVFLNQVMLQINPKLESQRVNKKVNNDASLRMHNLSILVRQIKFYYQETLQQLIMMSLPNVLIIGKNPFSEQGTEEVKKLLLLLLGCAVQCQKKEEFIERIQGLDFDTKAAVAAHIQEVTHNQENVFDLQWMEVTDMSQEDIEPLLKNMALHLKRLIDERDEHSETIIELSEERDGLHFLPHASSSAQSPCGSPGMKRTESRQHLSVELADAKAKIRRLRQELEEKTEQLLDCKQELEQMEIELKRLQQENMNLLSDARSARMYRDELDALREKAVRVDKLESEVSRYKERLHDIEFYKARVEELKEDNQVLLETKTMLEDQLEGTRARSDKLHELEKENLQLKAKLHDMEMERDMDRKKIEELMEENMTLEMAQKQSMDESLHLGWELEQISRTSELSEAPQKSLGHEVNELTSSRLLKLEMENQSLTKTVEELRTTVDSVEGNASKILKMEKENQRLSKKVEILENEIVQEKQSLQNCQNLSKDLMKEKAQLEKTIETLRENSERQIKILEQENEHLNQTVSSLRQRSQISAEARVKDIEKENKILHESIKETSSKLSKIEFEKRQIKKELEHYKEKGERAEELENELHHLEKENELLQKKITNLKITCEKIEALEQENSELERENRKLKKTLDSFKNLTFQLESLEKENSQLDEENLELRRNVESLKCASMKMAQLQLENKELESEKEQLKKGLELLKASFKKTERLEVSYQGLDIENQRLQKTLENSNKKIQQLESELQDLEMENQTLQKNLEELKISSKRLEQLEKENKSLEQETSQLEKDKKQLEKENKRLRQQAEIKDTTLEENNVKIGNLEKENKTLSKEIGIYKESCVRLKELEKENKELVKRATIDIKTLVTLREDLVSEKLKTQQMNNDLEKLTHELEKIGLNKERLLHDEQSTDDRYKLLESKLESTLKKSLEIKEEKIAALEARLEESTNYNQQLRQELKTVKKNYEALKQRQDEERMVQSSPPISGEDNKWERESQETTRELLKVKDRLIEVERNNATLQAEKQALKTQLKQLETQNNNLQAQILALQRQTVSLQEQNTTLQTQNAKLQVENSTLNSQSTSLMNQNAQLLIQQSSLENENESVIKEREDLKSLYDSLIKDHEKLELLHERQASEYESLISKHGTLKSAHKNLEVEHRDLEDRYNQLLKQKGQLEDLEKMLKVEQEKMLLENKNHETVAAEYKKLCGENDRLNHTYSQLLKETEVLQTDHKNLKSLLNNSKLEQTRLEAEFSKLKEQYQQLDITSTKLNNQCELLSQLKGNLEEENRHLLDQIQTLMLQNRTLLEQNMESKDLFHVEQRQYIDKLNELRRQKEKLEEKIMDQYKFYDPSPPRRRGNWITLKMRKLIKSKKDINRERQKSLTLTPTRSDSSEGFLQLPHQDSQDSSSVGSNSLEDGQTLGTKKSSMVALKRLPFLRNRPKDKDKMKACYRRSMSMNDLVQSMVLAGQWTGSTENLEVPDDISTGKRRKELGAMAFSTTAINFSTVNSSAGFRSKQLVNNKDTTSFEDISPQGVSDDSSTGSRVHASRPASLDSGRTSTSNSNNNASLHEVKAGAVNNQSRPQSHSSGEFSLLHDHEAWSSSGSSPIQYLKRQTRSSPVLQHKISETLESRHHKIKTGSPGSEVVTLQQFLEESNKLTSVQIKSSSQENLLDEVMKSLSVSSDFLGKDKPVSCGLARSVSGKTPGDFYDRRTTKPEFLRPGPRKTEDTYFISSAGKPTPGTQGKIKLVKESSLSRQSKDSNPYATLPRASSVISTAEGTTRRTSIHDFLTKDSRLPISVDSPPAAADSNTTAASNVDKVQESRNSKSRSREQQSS
myc-tagged human GIV F1685A mutant (Q3V6T2-3, form named): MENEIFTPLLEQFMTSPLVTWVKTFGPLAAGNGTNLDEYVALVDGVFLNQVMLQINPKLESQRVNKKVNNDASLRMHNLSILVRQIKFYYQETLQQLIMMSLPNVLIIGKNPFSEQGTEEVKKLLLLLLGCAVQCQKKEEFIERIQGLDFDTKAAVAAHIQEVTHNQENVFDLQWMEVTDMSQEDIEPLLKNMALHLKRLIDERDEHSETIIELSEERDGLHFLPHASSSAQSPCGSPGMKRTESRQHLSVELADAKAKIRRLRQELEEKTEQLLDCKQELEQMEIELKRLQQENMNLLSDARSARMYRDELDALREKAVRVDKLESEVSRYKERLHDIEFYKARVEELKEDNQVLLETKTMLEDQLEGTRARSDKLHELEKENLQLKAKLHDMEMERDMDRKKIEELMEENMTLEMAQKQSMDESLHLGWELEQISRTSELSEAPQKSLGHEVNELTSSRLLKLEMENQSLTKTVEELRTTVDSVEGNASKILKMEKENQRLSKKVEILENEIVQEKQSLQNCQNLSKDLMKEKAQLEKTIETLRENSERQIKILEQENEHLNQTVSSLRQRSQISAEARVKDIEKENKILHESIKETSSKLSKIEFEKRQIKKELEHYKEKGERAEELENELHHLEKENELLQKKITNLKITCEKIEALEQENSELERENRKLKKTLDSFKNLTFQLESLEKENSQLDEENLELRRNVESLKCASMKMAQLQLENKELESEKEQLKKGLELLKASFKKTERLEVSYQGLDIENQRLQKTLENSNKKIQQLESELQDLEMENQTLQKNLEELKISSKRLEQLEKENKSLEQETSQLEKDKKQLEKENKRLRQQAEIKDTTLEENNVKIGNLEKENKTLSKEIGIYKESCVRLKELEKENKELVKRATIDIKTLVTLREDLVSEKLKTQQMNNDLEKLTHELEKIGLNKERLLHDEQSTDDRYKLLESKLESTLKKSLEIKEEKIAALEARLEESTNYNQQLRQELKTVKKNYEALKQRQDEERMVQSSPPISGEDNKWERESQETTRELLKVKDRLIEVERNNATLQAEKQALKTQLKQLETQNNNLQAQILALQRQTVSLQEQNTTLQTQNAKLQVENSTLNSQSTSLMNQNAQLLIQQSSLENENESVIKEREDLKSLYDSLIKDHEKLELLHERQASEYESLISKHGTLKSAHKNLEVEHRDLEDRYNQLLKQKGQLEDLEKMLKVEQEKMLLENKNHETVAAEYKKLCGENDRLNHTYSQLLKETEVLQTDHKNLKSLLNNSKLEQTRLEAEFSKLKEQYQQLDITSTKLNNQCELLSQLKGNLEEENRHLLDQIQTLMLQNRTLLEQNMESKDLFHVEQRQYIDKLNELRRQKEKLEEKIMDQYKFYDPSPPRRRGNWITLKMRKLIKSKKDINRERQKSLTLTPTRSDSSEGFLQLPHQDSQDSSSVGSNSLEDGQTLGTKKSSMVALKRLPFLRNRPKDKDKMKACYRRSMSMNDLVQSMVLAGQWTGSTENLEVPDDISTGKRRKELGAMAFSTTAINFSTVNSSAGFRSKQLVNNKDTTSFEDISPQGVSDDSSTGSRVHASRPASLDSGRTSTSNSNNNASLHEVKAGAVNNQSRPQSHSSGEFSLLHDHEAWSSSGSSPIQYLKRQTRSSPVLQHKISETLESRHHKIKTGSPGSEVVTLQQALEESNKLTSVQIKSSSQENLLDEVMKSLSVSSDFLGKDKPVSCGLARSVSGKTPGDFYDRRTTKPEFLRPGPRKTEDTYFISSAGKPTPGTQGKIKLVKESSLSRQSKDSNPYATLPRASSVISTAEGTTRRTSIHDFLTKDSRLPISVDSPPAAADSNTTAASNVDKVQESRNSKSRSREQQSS

A further assay deals with FLAG-tagged Gαi3 (UniProt P08753). Put plainly: co-IP; lysates of co-transfected HEK293T cells; capture antibody (anti-FLAG or anti-myc) 3 h at 4 °C, Protein A or Protein G beads; immunoblot.
Assay [3] deals with myc-tagged human GIV (wild type) (human) (UniProt Q3V6T2). The description is as above.

Results are given in words; binding and its absence hold for the method and conditions named. Binding seen in cells or lysates may run through a third protein. Some entries that bind do so weakly or less than the wild type. For part of these data: Tags and fused reporters may be left off the sequences shown.

As for “myc-tagged human GIV (wild type) (from UniProt Q3V6T2-3 1-1870)”, the binding entry (in assay [1]; in assay [2]; with Gαi1(91)-RLuc2 (human); with FLAG-tagged Gαi3) was “binds” in each case.
Regarding “myc-tagged human GIV F1685A mutant (from UniProt Q3V6T2-3 1-1870)”, in assay [2], the binding result was “no binding”.

B1: untagged Dvl1 (protein, UniProt O14640 1-695)
chain: MAETKIIYHMDEEETPYLVKLPVAPERVTLADFKNVLSNRPVHAYKFFFKSMDQDFGVVKEEIFDDNAKLPCFNGRVVSWLVLAEGAHSDAGSQGTDSHTDLPPPLERTGGIGDSRPPSFHPNVASSRDGMDNETGTESMVSHRRERARRRNREEAARTNGHPRGDRRRDVGLPPDSASTALSSELESSSFVDSDEDGSTSRLSSSTEQSTSSRLIRKHKRRRRKQRLRQADRASSFSSITDSTMSLNIVTVTLNMERHHFLGISIVGQSNDRGDGGIYIGSIMKGGAVAADGRIEPGDMLLQVNDVNFENMSNDDAVRVLREIVSQTGPISLTVAKCWDPTPRSYFTVPRADPVRPIDPAAWLSHTAALTGALPRYGTSPCSSAVTRTSSSSLTSSVPGAPQLEEAPLTVKSDMSAVVRVMQLPDSGLEIRDRMWLKITIANAVIGADVVDWLYTHVEGFKERREARKYASSLLKHGFLRHTVNKITFSEQCYYVFGDLCSNLATLNLNSGSSGTSDQDTLAPLPHPAAPWPLGQGYPYQYPGPPPCFPPAYQDPGFSYGSGSTGSQQSEGSKSSGSTRSSRRAPGREKERRAAGAGGSGSESDHTAPSGVGSSWRERPAGQLSRGSSPRSQASATAPGLPPPHPTTKAYTVVGGPPGGPPVRELAAVPPELTGSRQSFQKAMGNPCEFFVDIM
In the case of B1, in assay [3], the binding result is listed as “no binding”.

The record behind these values is PMC8042451.
